Reference: the supplement of paper PMC12217912
The list shows a part of the results. Sequences were assembled here from the parent chain. Values near 0.05 are background.

B1: TEV protease; numbered along this chain (parent)
chain: MGESLFKGPRDYNPISSSICHLTNESDGHTTSLYGIGFGPFIITNKHLFRRNNGTLVVQSLHGVFKVKDTTTLQQHLVDGRDMIIIRMPKDFPPFPQKLKFREPQREERICLVTTNFQTKSMSSMVSDTSCTFPSGDGIFWKHWIQTKDGQCGSPLVSTRDGFIVGIHSASNFTNTNNYFTSVPKNFMELLTNQEAQQWVSGWRLNADSVLWGGHKVFMVKPEEPFQPVKEATQL

Variants of: B1
Test: raw area under fraction-flipped curve 0-4 h after induction (AUC4h, not background-subtracted), DNA-recorder readout of cleavage of the substrate (dimensionless); higher = more cleavage of the substrate by the protease variant
Conditions: temperature: 34 °C; time window: 0-4 h after rhamnose induction
Experimental: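 In vivo DNA recorder in E. coli TOP10(DE3) ΔrhaA at 34 °C. Each TEVp single-site mutant (parent TEVp 0) is paired with a single-site variant of the 7-mer TEVs (canonical ENLYFQ|S). The substrate sits between flexible linkers in a Bxb1-sfGFP-TEVs-SsrA fusion, so cleavage stabilises Bxb1 and speeds flipping of a recombination array, read by NGS. The value is the raw area under the fraction-flipped curve over 0-4 h after rhamnose induction (AUC4h), with ≥20 reads per time point. It is not background-subtracted; inactive controls average about 0.047.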
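Further: Bxb1 expression induced with 0.2% (w/v) L-rhamnose at OD600 near 0.5, cultures sampled hourly, flipped fraction per protease–substrate barcode pair counted by paired-end Illumina sequencing.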

Row | Variant | area with substrate ENLAFQS | area with substrate ENLCFQS | area with substrate ENLDFQS | area with substrate ENLEFQS | area with substrate ENLFFQS | area with substrate ENLGFQS | area with substrate ENLIFQS | area with substrate ENLLFQS | area with substrate ENLNFQS | area with substrate ENLPFQS | area with substrate ENLQFQS | area with substrate ENLRFQS | area with substrate ENLSFQS | area with substrate ENLVFQS | area with substrate ENLWFQS | area with substrate ENLHFQS | area with substrate ENLMFQS | area with substrate ENLTFQS | area with substrate ENLKFQS
1 | A196T | 0.0744 | 0.0697 | 0.0492 | 0.0681 | 0.0813 | 0.0739 | 0.0736 | 0.078 | 0.0558 | 0.0717 | 0.0712 | 0.061 | 0.0562 | 0.078 | 0.0609 | – | – | – | –
2 | A196Y | 0.0628 | – | 0.056 | – | 0.0988 | – | – | 0.0607 | – | – | 0.105 | 0.0714 | – | 0.1 | 0.0739 | 0.0882 | 0.0855 | 0.0654 | –
3 | Q197N | 0.0658 | – | – | 0.0558 | – | 0.0667 | – | – | 0.0607 | – | 0.0861 | – | – | 0.0797 | – | – | – | – | 0.0688
4 | W199I | 0.0611 | – | – | – | 0.0557 | – | – | 0.0572 | – | 0.0512 | – | – | – | 0.0449 | – | – | – | – | –
5 | W199M | 0.061 | 0.069 | 0.0753 | 0.0637 | 0.117 | 0.106 | 0.0637 | – | 0.0757 | 0.0474 | 0.0647 | 0.0704 | 0.0603 | – | – | 0.0549 | – | – | 0.0698
6 | W199V | 0.0513 | 0.0646 | 0.0689 | – | 0.0808 | – | 0.0382 | 0.0679 | 0.0651 | 0.0646 | – | – | 0.0594 | – | 0.0483 | 0.0696 | 0.0669 | – | 0.0807
7 | S201V | 0.0608 | – | 0.0601 | 0.0702 | 0.0899 | – | – | 0.0619 | – | 0.0552 | 0.0879 | 0.078 | 0.0664 | 0.0952 | – | 0.0726 | – | – | –
8 | S201Y | 0.0444 | – | 0.0509 | – | 0.0825 | – | – | 0.0361 | 0.0681 | 0.0589 | – | 0.0781 | – | 0.0786 | 0.0666 | 0.0618 | – | – | 0.0783
9 | G202E | 0.0622 | 0.0546 | 0.0514 | 0.0716 | 0.065 | – | 0.0704 | 0.0525 | 0.0487 | 0.0425 | 0.0483 | 0.0504 | 0.057 | 0.0599 | 0.0633 | 0.0728 | 0.0388 | – | 0.0627
10 | W203K | 0.0596 | – | 0.0612 | 0.0586 | 0.0612 | – | – | 0.0532 | 0.0581 | 0.0683 | 0.0624 | 0.0567 | 0.043 | – | 0.0575 | – | – | – | 0.0601
11 | L205A | 0.0544 | – | 0.0624 | 0.0695 | 0.0669 | – | 0.0705 | 0.061 | 0.0536 | – | 0.0579 | – | 0.0169 | – | 0.0449 | – | – | – | 0.0718
12 | L205D | 0.0648 | 0.0738 | – | – | 0.0691 | – | – | 0.0755 | – | 0.055 | – | – | 0.0496 | – | 0.0455 | 0.0648 | – | – | 0.0664
13 | L205R | 0.0624 | – | 0.0829 | 0.0324 | 0.0682 | – | – | 0.0609 | 0.0609 | 0.0403 | – | 0.0423 | – | 0.0573 | – | 0.0809 | – | – | –
14 | A207D | 0.0625 | 0.079 | 0.0616 | 0.0564 | 0.0758 | – | 0.0766 | 0.0593 | 0.0734 | – | 0.0666 | 0.0611 | 0.0579 | 0.0776 | – | 0.0696 | 0.0639 | 0.0644 | 0.0825
15 | A207L | 0.0524 | 0.0554 | – | – | 0.0726 | – | 0.102 | – | – | – | – | 0.0529 | 0.0517 | 0.0741 | 0.0692 | – | – | – | 0.0555
16 | V210F | 0.0598 | – | – | 0.0723 | – | – | 0.0622 | 0.0492 | 0.062 | 0.0518 | 0.0585 | 0.0644 | 0.0664 | – | 0.0606 | 0.0679 | – | 0.0482 | 0.0691
17 | V210T | 0.0619 | 0.0548 | 0.0783 | 0.0558 | – | 0.0879 | 0.0374 | – | 0.0533 | 0.0765 | 0.0654 | – | 0.0556 | 0.0656 | – | 0.0568 | – | – | 0.0582
18 | L211F | 0.0712 | 0.0595 | 0.0543 | 0.0738 | 0.095 | 0.0697 | 0.089 | 0.0671 | – | 0.0769 | 0.0834 | – | – | 0.092 | – | 0.0689 | 0.0873 | – | –
19 | K216W | 0.0651 | 0.0691 | 0.0563 | – | 0.0768 | – | 0.0663 | 0.0862 | – | – | – | 0.0658 | 0.0491 | 0.071 | – | 0.0749 | – | – | 0.069
20 | F218A | 0.0611 | 0.0634 | 0.078 | 0.0669 | 0.062 | – | 0.0604 | – | 0.0777 | – | 0.0571 | – | – | 0.0595 | 0.0639 | – | – | – | 0.0545
21 | F218K | 0.0961 | – | – | – | – | – | – | 0.0549 | 0.0555 | 0.0739 | – | – | 0.0528 | – | – | 0.0579 | – | – | 0.0564
22 | M219K | 0.083 | 0.0623 | 0.0596 | 0.0545 | 0.0818 | – | 0.0682 | 0.0696 | 0.0622 | – | 0.0568 | – | 0.0612 | – | 0.0609 | – | – | – | 0.0632
23 | M219P | 0.0623 | 0.064 | 0.08 | 0.0667 | 0.0623 | – | 0.0664 | – | 0.0643 | 0.0493 | – | 0.0599 | 0.0608 | 0.0614 | – | – | – | – | 0.0541
24 | V220L | 0.0547 | – | 0.0649 | 0.0678 | 0.0777 | 0.0714 | 0.0792 | 0.071 | 0.0694 | 0.0518 | 0.0639 | – | 0.0586 | 0.0748 | 0.05 | – | – | 0.0846 | 0.0719
25 | V220Y | 0.0383 | – | – | 0.0671 | 0.0799 | – | – | – | 0.0736 | 0.0529 | 0.0719 | 0.0669 | 0.0707 | – | – | 0.0705 | – | – | 0.0587
26 | K221C | 0.0577 | – | 0.067 | 0.0516 | 0.0796 | 0.0648 | 0.0739 | 0.0687 | 0.0687 | 0.049 | 0.0603 | 0.0665 | 0.0589 | 0.0813 | – | 0.0518 | 0.0853 | – | 0.0793
27 | K221M | 0.0391 | – | 0.0651 | – | 0.0759 | – | 0.0878 | 0.073 | – | 0.0488 | – | 0.0782 | 0.0497 | 0.0862 | 0.0631 | 0.0676 | 0.0684 | – | 0.0804
28 | P222R | 0.0795 | 0.0751 | 0.0572 | 0.0851 | 0.0875 | 0.0693 | – | – | 0.0588 | 0.0579 | 0.0638 | – | 0.0576 | 0.0787 | – | 0.0644 | 0.0752 | – | 0.0778
29 | F226S | 0.0578 | – | 0.0619 | 0.064 | 0.0933 | 0.0479 | 0.096 | 0.0652 | 0.0618 | 0.0558 | 0.0763 | 0.0751 | – | 0.092 | 0.0731 | 0.0651 | – | – | –
